“And” between values parts separate entries of the source, which are not always exact repeats. Identical values can stand only once. The list shows a part of the results. These are further read-outs of the screen, such as a control signal, another cell line or another target. No call is given for them.

The values below come from PubChem BioAssay AID1745853 (National Center for Advancing Translational Sciences (NCATS), 2022).

Common to all, as to assay: Primary Screen for Target Class Profiling of Small Molecule Inhibitors of Methyltransferases
The target in assay [1] is Glycine N-methyltransferase (Homo sapiens) (UniProt Q14749). To be noted: purified enzyme, MTase-Glo SAH luminescence; measured here: GNMT inhibition; at 40 µM; stronger effect = lower value. In short, it runs like this: (§1)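 Each enzyme was assayed with SAM and its substrate. SAH formation detected by MTase-Glo luminescence; single-point 40 uM screen[…].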
Assay [2] has as its target Guanidinoacetate N-methyltransferase (Homo sapiens) (UniProt Q14353). To be noted: purified enzyme, MTase-Glo SAH luminescence; measured here: GAMT inhibition; at 40 µM; stronger effect = lower value. Summed up: as §1
For assay [3], the target named is Histamine N-methyltransferase (Homo sapiens) (UniProt P50135). To be noted: purified enzyme, MTase-Glo SAH luminescence; measured here: HNMT inhibition; at 40 µM; stronger effect = lower value. Summed up: as §1
Assay [4] has as its target Nicotinamide N-methyltransferase (Homo sapiens) (UniProt P40261). To be noted: purified enzyme, MTase-Glo SAH luminescence; measured here: NNMT inhibition; at 40 µM; stronger effect = lower value. In short, it runs like this:
as §1

Assay [5] deals with Phenylethanolamine N-methyltransferase (Homo sapiens) (UniProt P11086). To be noted: purified enzyme, MTase-Glo SAH luminescence; measured here: PNMT inhibition; at 40 µM; stronger effect = lower value. In short, it runs like this:
as §1
% is scaled to controls: 0 for no effect and ±100 for the full control effect.

Regarding `COCCOc1ccnc(-c2noc([C@@H]3CCCN3Cc3ccncc3)n2)c1`, the activity change, negative = inhibition in assay [1] was -1.45%; in assay [2] it was -2.58%; in assay [3] it was 0.677%; in assay [4], -2.96%; in assay [5], 0.334%.
For the compound `C[C@]1(O)CCN(C(=O)CCS(=O)(=O)c2ccccc2)C[C@@H]1O`, the activity change, negative = inhibition in assay [1] is -2.09%; in assay [2], -2.18%; in assay [3], 0.452%; in assay [4], -4.32%; in assay [5], 8.18%.
For `Cc1cccc(C)c1NC(=O)Cn1c(=O)oc2cc(S(=O)(=O)N3CC(C)CC(C)C3)ccc21` (stereo not given), the activity change, negative = inhibition in assay [1] was -5.22%; in assay [2] it was 5.92%; in assay [3], -0.493%; in assay [4], 6.18%; in assay [5] it was -5.6%.
With `Nc1ncnc2n[nH]c(Nc3ccc(F)cc3)c12`, the activity change, negative = inhibition was -41.9% and -20.1% in assay [1]; -11.5% and -11.1% in assay [2]; -33.9% and -17.8% in assay [3]; -33.3% and -25.9% in assay [4]; -26% and -24.2% in assay [5].
`C[C@@H]1O[C@@H](O[C@H]2[C@@H](OC(=O)[C@]34CCC(C)(C)CC3C3=CCC5[C@@]6(C)C[C@H](O)[C@H](O[C@@H]7O[C@H](C(=O)O)[C@@H](O)[C@H](O)[C@H]7O)[C@@](C)(C(=O)O)C6CC[C@@]5(C)[C@]3(C)CC4)OC[C@H](O)[C@@H]2O)[C@H](O)[C@H](O)[C@H]1O[C@@H]1OC[C@@H](O)[C@H](O)[C@H]1O` (stereo not given in full): the activity change, negative = inhibition is 0.256% in assay [1]; -6.74% in assay [2]; 3.78% in assay [3]; -16.8% in assay [4]; -8.52% in assay [5].
In the same order, the values of `O=C1NCCCCCCN(C(=O)c2ccco2)[C@H]2C[C@H](c3nc(-c4cnccn4)no3)C[C@@H]12` are -3.81%, -3.08%, -1.4%, -2.95% and 3.38%.
`CCn1cc(NC(=S)Nc2cc(Cl)ccc2OC)c(C(N)=O)n1`: the activity change, negative = inhibition is -2.94% in assay [1]; -2.8% in assay [2]; 9.43% in assay [3]; -10.2% in assay [4]; 4.3% in assay [5].
In the same order, the values of `CCOCCCN1C(=O)c2cc3occc3n2CC1(C)C(=O)NC1CCCCCCC1` (stereo not given) are -6.97%, 2.76%, -1.6%, 0.663% and -1.75%.
In the case of `CC(C)CCNC(=O)C1CCCN(C2CCN(CCc3ccccc3)CC2)C1` (stereo not given), the activity change, negative = inhibition is 0.039% in assay [1]; -3.99% in assay [2]; -2.4% in assay [3]; -2.6% in assay [4]; 1.61% in assay [5].
In the case of `O=C(c1ccc(Cn2ccn3nc4c(c3c2=O)CCCC4)cc1)N1CCN(c2ccccn2)CC1`, the activity change, negative = inhibition in assay [1] is -11.7%; in assay [2], -7.82%; in assay [3] it was -9.98%; in assay [4], -26%; in assay [5], -5.85%.
Consider `O=C(CCn1ccc2cc(S(=O)(=O)N3CCCCC3)ccc21)NCCc1ccc(Cl)cc1`, for which the activity change, negative = inhibition in assay [1] is -1.35%; in assay [2] it was 0.056%; in assay [3] it was 4.32%; in assay [4], -6.14%; in assay [5], 0.47%.
Take `CC(C)NC(=O)c1ccnc(-c2cc(NC3CCCC3)nc3[nH]ccc23)c1`: the activity change, negative = inhibition in assay [1] was -11.9%; in assay [2], -7.86%; in assay [3] it was -9.29%; in assay [4], -14.4%; in assay [5] it was -16.3%.
On to `C[C@@H]1O[C@@H](O[C@@H]2[C@@H](O)[C@H](O[C@@H]3[C@@H](O)[C@@H](O)[C@H](O[C@H]4[C@H](OC(=O)[C@]56CCC(C)(C)C[C@H]5C5=CCC7[C@@]8(C)C[C@H](O)[C@H](O[C@@H]9O[C@@H](C)[C@H](O)[C@@H](O)[C@H]9O)[C@@](C)(CO)C8CC[C@@]7(C)[C@]5(C)C[C@H]6O)O[C@H](C)[C@H](O)[C@@H]4O)O[C@H]3C)OC[C@H]2O)[C@H](O)[C@H](O)[C@H]1O` (stereo not given in full), for which the activity change, negative = inhibition in assay [1] was 0.757%; in assay [2], -3.15%; in assay [3] it was 3.87%; in assay [4], -1.77%; in assay [5], 8.71%.
Take `O=C(c1cn(CC2CCCO2)nn1)N1CCN(c2cccc(C(F)(F)F)c2)CC1` (stereo not given): the activity change, negative = inhibition in assay [1] was -5.04%; in assay [2] it was -8.37%; in assay [3] it was -4.8%; in assay [4], -13.5%; in assay [5], -4.94%.
As to `CCC(CC)C(=O)OC12C(OC(=O)C(C)C)C(C)C3(O)C(C=C(CO)CC4(O)C(=O)C(C)=CC43)C1C2(C)C` (stereo not given), the activity change, negative = inhibition in assay [1] is -1.26%; in assay [2] it was -6.5%; in assay [3], 4.36%; in assay [4] it was -21.3%; in assay [5], 0.103%.
As to `COc1cccc(CN2C(=O)c3cc4ccccc4n3CC2(C)C(=O)NCCC(C)C)c1` (stereo not given), the activity change, negative = inhibition in assay [1] was 2.54%; in assay [2], 0%; in assay [3], 3.92%; in assay [4], 2.55%; in assay [5], -0.188%.
Take `CC(C)(C)c1cc(C(=O)NCc2cccnc2)nn2cccc12`: the activity change, negative = inhibition in assay [1] was -12.3%; in assay [2], -4.72%; in assay [3], -4.84%; in assay [4] it was -20.2%; in assay [5], -7.97%.
For the compound `Cc1cccc(C2c3cccn3-c3sc4c(c3CN2C(=O)Nc2ccc3c(c2)OCCO3)CCCC4)c1` (stereo not given), the activity change, negative = inhibition in assay [1] was -1.73%; in assay [2], 2.98%; in assay [3] it was -4.32%; in assay [4], 0.063%; in assay [5], 0.671%.
With `COCCN(C)Cc1ccc2nc3sc(C(=O)N(C)C4CCCCC4)cn3c2c1`, the activity change, negative = inhibition in assay [1] is 3.18%; in assay [2] it was 5.18%; in assay [3], -71.4%; in assay [4] it was -5.73%; in assay [5], 4.47%.
With `CCCN1C(=O)c2c(C(=O)NCCCc3ccccc3)ncn2CC1(C)C(=O)NCCC(C)C` (stereo not given), the activity change, negative = inhibition in assay [1] is -2.4%; in assay [2], 0%; in assay [3] it was 2.46%; in assay [4] it was -6.4%; in assay [5], 3.01%.
Turning to `O=C(CCC[C@@H]1[C@H]2CCCN3CCC[C@@H](CN1Cc1ccccc1)[C@@H]23)Nc1cccnc1`, the activity change, negative = inhibition in assay [1] was -9.14%; in assay [2] it was -6.69%; in assay [3] it was -55.4%; in assay [4] it was -10.4%; in assay [5] it was -3.87%.
Taken in the same sequence, the figures for `Cc1ccc(N2CCN(C(=O)c3cc(C(F)(F)F)nn3C)CC2=O)cc1` were -1.6%, -1.69%, -0.705%, -4.6% and 13.1%.
`COc1cccc(Nc2nccc3c(=O)cc(-c4ccccn4)oc23)c1`: the activity change, negative = inhibition in assay [1] was -47.7%; in assay [2] it was -21.5%; in assay [3] it was -36.2%; in assay [4], -42.1%; in assay [5], -32.5%.
On to `CC1(C)CC[C@]2(C(=O)O)CC[C@]3(C)C(=CCC4[C@@]5(C)C[C@@H](O)[C@H](O)[C@@](C)(CO)C5[C@H](O)C[C@]43C)[C@@H]2C1` (stereo not given in full), for which the activity change, negative = inhibition is 4.36% in assay [1]; 7.19% in assay [2]; 6.92% in assay [3]; -5.18% in assay [4]; 7.81% in assay [5].
Taken in the same sequence, the figures for `CC(c1ccccc1)N1C(=O)c2ccccc2CC1(C)C(=O)NC1CCCCCCC1` (stereo not given) were -2.64%, 0.635%, 7.14%, -2.02% and 3.01%.
In the same order, the values of `Cc1ccccc1NC(=O)c1ncn2c1C(=O)N(C1CC1)C(C)(C(=O)NCc1ccc(F)cc1)C2` (stereo not given) are 3.78%, 0%, 9.81%, 4.55% and 7.5%.
Consider `CCOC(=O)c1cc2n(n1)CC(C)(C(=O)NC1CCC(C)CC1)N(c1cc(C)cc(C)c1)C2=O` (stereo not given), for which the activity change, negative = inhibition in assay [1] was 3.31%; in assay [2], 0.919%; in assay [3], 2.83%; in assay [4], -2.1%; in assay [5] it was 2.79%.
